± gives the standard error. Variants at the background level are over-represented here.
B1: glmS ribozyme (parent)
chain: AUAAAAGCGCCAGAACUACAGAAAUGUAGUUGACGAGGAGGAGGUUUAUCGAAUUUUCGGCGGAUGCCUCCAAA

How the values were obtained:
Settings in all cases: with glucosamine-6-phosphate
glucosamine-6-phosphate [1] = variants of: B1; experiment: self-cleavage kobs at 40 uM GlcN6P; higher = faster cleavage; RNA array
Summary of the method: (§1)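 Barcoded ribozyme variants, transcribed in situ by E. coli RNA polymerase on sequenced MiSeq chips, were followed via a hybridised Cy3 probe at 37 °C. Glucosamine-6-phosphate ranged from 40 μM to 10 mM in HEPES/KCl/Mg(OAc)2 buffer. kobs came from decay fits to per-tile medians, and kcat and KM from weighted Michaelis–Menten fits.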

glucosamine-6-phosphate [2] = variants of: B1; experiment: self-cleavage kobs at 640 uM GlcN6P; higher = faster cleavage; RNA array
Summary of the method: as §1

glucosamine-6-phosphate [3] = variants of: B1; experiment: self-cleavage kobs at 160 uM GlcN6P; higher = faster cleavage; RNA array
Summary of the method: as §1

glucosamine-6-phosphate [4] = variants of: B1; experiment: self-cleavage kobs at 2500 uM GlcN6P; higher = faster cleavage; RNA array
Summary of the method: as §1

glucosamine-6-phosphate [5] = variants of: B1; experiment: self-cleavage kobs at 10000 uM GlcN6P; higher = faster cleavage; RNA array
Summary of the method: as §1

| Variant | self-cleavage kobs at 40 uM GlcN6P (glucosamine-6-phosphate [1]) | self-cleavage kobs at 640 uM GlcN6P (glucosamine-6-phosphate [2]) | self-cleavage kobs at 160 uM GlcN6P (glucosamine-6-phosphate [3]) | self-cleavage kobs at 2500 uM GlcN6P (glucosamine-6-phosphate [4]) | self-cleavage kobs at 10000 uM GlcN6P (glucosamine-6-phosphate [5]) |
| --- | --- | --- | --- | --- | --- |
| G29U G32A | 3.81e-05 ± 1.5e-05 s⁻¹ | 0.000328 ± 6.3e-05 s⁻¹ | 0.000105 ± 2.4e-05 s⁻¹ | 0.000738 ± 0.00012 s⁻¹ | 0.00128 ± 0.00016 s⁻¹ |
| G29U G35U | < 1e-05 s⁻¹ |  | < 1e-05 s⁻¹ | < 1e-05 s⁻¹ | < 1e-05 s⁻¹ |
| G29U G35U A42C | < 1e-05 s⁻¹ |  |  | < 1e-05 s⁻¹ |  |
| G29U G40A G44U C68A | < 1e-05 s⁻¹ |  |  |  | < 1e-05 s⁻¹ |
| G29U G40A U49G U54G | < 1e-05 s⁻¹ |  |  |  | < 1e-05 s⁻¹ |
| G29U G40C A52G | < 1e-05 s⁻¹ |  |  |  |  |
| G29U G41A U45G A53G | < 1e-05 s⁻¹ |  |  |  |  |
| G29U G43A G66A | < 1e-05 s⁻¹ |  |  |  | < 1e-05 s⁻¹ |
| G29U G43U | < 1e-05 s⁻¹ | < 1e-05 s⁻¹ | < 1e-05 s⁻¹ |  |  |
| G29U G43U C71U | < 1e-05 s⁻¹ |  |  |  |  |
| G29U G44U | < 1e-05 s⁻¹ |  |  |  |  |
| G29U G66A | 8.79e-05 ± 1.5e-05 s⁻¹ |  |  |  |  |
| G29U U31C A36C | < 1e-05 s⁻¹ |  |  | < 1e-05 s⁻¹ |  |
| G29U U54G C58U U69G | 6.42e-05 ± 2.3e-05 s⁻¹ |  |  |  |  |
| G29U U56A | 4.68e-05 ± 1.4e-05 s⁻¹ | 0.000211 ± 7e-05 s⁻¹ | 9.32e-05 ± 2e-05 s⁻¹ |  | 0.00285 ± 0.00045 s⁻¹ |
| G29U U56A G62C | < 1e-05 s⁻¹ |  |  |  | < 1e-05 s⁻¹ |
| G29U U57C | < 1e-05 s⁻¹ |  |  |  |  |
| U30A A33U C34G G37A | < 1e-05 s⁻¹ |  |  |  |  |
| U30A A33U C70U | < 1e-05 s⁻¹ |  |  |  |  |
| U30A A33U G41U A52G | < 1e-05 s⁻¹ |  |  | < 1e-05 s⁻¹ |  |
| U30A A39U G63U | < 1e-05 s⁻¹ | < 1e-05 s⁻¹ |  | < 1e-05 s⁻¹ |  |
| U30A A42C A53U C67A | < 1e-05 s⁻¹ |  |  |  |  |
| U30A A42C C50A | < 1e-05 s⁻¹ | < 1e-05 s⁻¹ |  | < 1e-05 s⁻¹ |  |
| U30A A42G | 0.000294 ± 7.3e-05 s⁻¹ | 0.0017 ± 0.00047 s⁻¹ |  |  | 0.0172 ± 0.0059 s⁻¹ |
| U30A A52U U54A C71A | < 1e-05 s⁻¹ |  |  |  |  |
| U30A C50G | 3.17e-05 ± 1.5e-05 s⁻¹ | 0.00128 ± 0.0005 s⁻¹ | 6.28e-05 ± 1.6e-05 s⁻¹ | 6.93e-05 ± 1.6e-05 s⁻¹ |  |
| U30A C50U | < 1e-05 s⁻¹ |  |  |  |  |
| U30A C58G | < 1e-05 s⁻¹ |  |  |  |  |

| Variant | self-cleavage kobs at 40 uM GlcN6P (glucosamine-6-phosphate [1]) | self-cleavage kobs at 640 uM GlcN6P (glucosamine-6-phosphate [2]) | self-cleavage kobs at 160 uM GlcN6P (glucosamine-6-phosphate [3]) | self-cleavage kobs at 2500 uM GlcN6P (glucosamine-6-phosphate [4]) | self-cleavage kobs at 10000 uM GlcN6P (glucosamine-6-phosphate [5]) |
| --- | --- | --- | --- | --- | --- |
| U30A C61G G63C | < 1e-05 s⁻¹ |  |  |  |  |
| U30A C70U | 0.000214 ± 3.6e-05 s⁻¹ | 0.000765 ± 0.00011 s⁻¹ | 0.000386 ± 7.4e-05 s⁻¹ | 0.00125 ± 0.00027 s⁻¹ | 0.00358 ± 0.00063 s⁻¹ |
| U30A G32A G44C | < 1e-05 s⁻¹ |  |  |  |  |
| U30A G35U | < 1e-05 s⁻¹ | < 1e-05 s⁻¹ | < 1e-05 s⁻¹ | < 1e-05 s⁻¹ | < 1e-05 s⁻¹ |
| U30A G35U C71A | < 1e-05 s⁻¹ |  |  |  |  |
| U30A G43A A52C U55C C70U | < 1e-05 s⁻¹ |  |  | < 1e-05 s⁻¹ |  |
| U30A G62C | < 1e-05 s⁻¹ | < 1e-05 s⁻¹ | < 1e-05 s⁻¹ |  | < 1e-05 s⁻¹ |
| U30A U46G | 4.09e-05 ± 1.5e-05 s⁻¹ |  |  | 0.000638 ± 0.00022 s⁻¹ | 0.000702 ± 8.5e-05 s⁻¹ |
| U30A U47G | 7.81e-05 ± 2.4e-05 s⁻¹ | 0.000406 ± 8.6e-05 s⁻¹ |  | 0.000481 ± 0.00024 s⁻¹ | 0.00109 ± 0.00021 s⁻¹ |
| U30A U55A C61A | < 1e-05 s⁻¹ |  |  | < 1e-05 s⁻¹ |  |
| U30C | < 1e-05 s⁻¹ | 0.000113 ± 2e-06 s⁻¹ | 4.18e-05 ± 1.9e-06 s⁻¹ | 0.000759 ± 0.00027 s⁻¹ | 0.000395 ± 6.5e-06 s⁻¹ |
| U30C A33C | < 1e-05 s⁻¹ | < 1e-05 s⁻¹ | < 1e-05 s⁻¹ |  |  |
| U30C A33U U45G A52G | < 1e-05 s⁻¹ |  |  |  |  |
| U30C A36C G38C | < 1e-05 s⁻¹ |  |  |  |  |
| U30C A39C G41U | < 1e-05 s⁻¹ |  |  |  | < 1e-05 s⁻¹ |
| U30C A39C U47A G59C | < 1e-05 s⁻¹ |  |  |  | < 1e-05 s⁻¹ |
| U30C A48G | < 1e-05 s⁻¹ |  | < 1e-05 s⁻¹ |  | < 1e-05 s⁻¹ |
| U30C A48U U57G C67G C68A | < 1e-05 s⁻¹ |  |  |  |  |
| U30C A52C | < 1e-05 s⁻¹ | < 1e-05 s⁻¹ |  | < 1e-05 s⁻¹ |  |
| U30C A52C A64C | < 1e-05 s⁻¹ |  |  |  |  |
| U30C A64C | < 1e-05 s⁻¹ | < 1e-05 s⁻¹ |  |  |  |
| U30C A64U | < 1e-05 s⁻¹ | < 1e-05 s⁻¹ | < 1e-05 s⁻¹ |  |  |
| U30C C68G | 3.15e-05 ± 1.2e-05 s⁻¹ | 8.37e-05 ± 1.7e-05 s⁻¹ | 5.26e-05 ± 1.7e-05 s⁻¹ |  |  |
| U30C G40A A52G U55C C61G | < 1e-05 s⁻¹ |  |  |  | < 1e-05 s⁻¹ |
| U30C G40U C67G | < 1e-05 s⁻¹ |  |  |  | < 1e-05 s⁻¹ |
| U30C G41U | < 1e-05 s⁻¹ |  | < 1e-05 s⁻¹ |  |  |
| U30C G51C A64U | < 1e-05 s⁻¹ |  |  |  | < 1e-05 s⁻¹ |

Reference: the supplement of paper PMC7125110
